Experiment: Chemiluminescence on heating
Protocol: (b) Synthesis of 4-(p-Fluorophenylthio)-4-(3-pivaloyloxyphenyl)spiro[1,2-dioxetane-3,2'tricyclo[3.3.1.1^3,7 ]decane] (4). A small photooxygenation apparatus was charged with 54 mg (0.12 mmol) of the vinyl sulfide, 150 mg of polymer-bound Rose Bengal, and 25 mL of CH2 Cl2 dried over MgSO4. The resulting solution was then cooled to -78° C. with oxygen bubbling through it. After several minutes, the reaction mixture was irradiated with a 1000 W sodium lamp for 3.5 hours.
4-(3-t-Butyldimethylsilyloxyphenyl)-4-methoxyspiro[1,2-dioxetane-3,2'-tricyclo-[3.3.1.1^3,7 ]decane]. […] A 152 mg portion (1 mmol) of t-butyldimethylsilyl chloride was added to a solution of imidazole (69 mg, 1 mmol) in 2 mL of CH2 Cl2 causing formation of a white precipitate. The mixture was filtered and the supernatant transferred into a solution containing 285 mg (0.94 mmol) of dioxetane 6 in 1 mL of CH2 Cl2. After standing for 1 h, the solution was filtered, washed with 2×1 mL of water, dried and evaporated.
4-(3-t-Butyldiphenylsilyloxyphenyl)-4-methoxyspiro[1,2-dioxetane-3,2'-tricyclo-[3.3.1.1^3,7 ]decane]. […] A.950 mg portion (3.45 mmol) of t-butyldiphenylsilyl chloride was added to a solution of imidazole (236 mg, 3.47 mmol) in 25 mL of CH2 Cl2 causing formation of a white precipitate. The mixture was filtered and 0.99 g (3.3 mmol) of dioxetane 6 was added to the supernatant. […]

Compound: CC(C)(C)C(=O)Oc1cccc(C2(Sc3ccc(F)cc3)OOC23C2CC4CC(C2)CC3C4)c1 (stereo not shown) [Dioxetane 4, 4-(p-Fluorophenylthio)-4-(3-pivaloyloxyphenyl)spiro[1,2-dioxetane-3,2'tricyclo-[3.3.1.1^3,7]decane]]
- chemiluminescence on heating: emitted light when a sample was heated on a TLC plate

— patent US5936101A, “Process for the preparation of 1,2-dioxetane compounds and novel sulfur-substituted 1,2-dioxetane compounds as intermediates” (Lumigen, Inc., priority 1997, dated 1999)
